Reference: PubChem BioAssay AID1347073 (National Center for Advancing Translational Sciences (NCATS), 2019)
Hit rate of the full screen: of about 45,000 compounds, about 200 (0.44%) were called active. The inconclusive results got no clear call from the source; some entries with a clear call stand among them for comparison. The call rests on the fitted dose curve; in most records, active means well fitted activation curve with a large enough effect; inconclusive means small, poorly fitted or top-dose-only effect; inactive means no such curve, though single readings can be large or run the other way. A potency beside an inconclusive call is a rough fit, not a confirmed value.
Potency means the concentration at half of the fitted maximal effect; tags describe the fitted curve by direction and shape.

Experiment: qHTS of TDP-43 Inhibitors: NCGC Sytravon Library Screen; further: nearly all actives have a fitted effect of over 55% in size; on growth rescue (activation): 0% is about no effect
Conditions: yeast TDP-43 toxicity rescue, BacTiter-Glo growth, 24 h; growth rescue (activation): at 46.1 µM (top of the series)
From the text: The goal of this project is to identify new chemical probes capable of reversing the toxicity associated with TDP-43 which is associated with frontotemporal lobar degeneration and amyotrophic lateral sclerosis. These compounds will provide a complementary approach to deciphering the tangled mechanisms of toxicity and protection that we have uncovered through genome-wide genetic screens and are beginning to uncover in a large-scale proteomics analysis with mass spectroscopy. To this end, a miniaturized assay was developed to be screened against the Molecular Libraries Small Molecule Repository (MLSMR) to discover TDP-43 inhibitors. Please note that in the set-up this yeast-based assay compounds that inhibit as TDP-43, have a read-out as activators. NIH Chemical Genomics Center [NCGC] NIH Molecular Libraries Probe Centers Network [MLPCN] Assay Submitter (PI): Susan Lindquist, Whitehead Institute/MIT MLPCN Grant: R21 NS060957
Dispense 2.5 microL yeast galactose medium per 1536-well plate, pin compound, dispense 2.5 microL TDP-43 expressing yeast in galactose medium at OD600=0.02 (pregrown in raffinose medium to mid-log phase) per well, incubate for 24 hr at 30 deg C, and cell growth will be measured using 5 microL of Bactiter/Glo reagent to entire plate and read using Luminescence Protocol in ViewLux.
In the case of `Cc1ccc(C(=O)N[C@H](C(=O)Nc2sccc2C(N)=O)C(C)C)cc1`, the “growth rescue (activation)” value is reported as inactive: 8.95%.
For `Fc1ccc(C2=CC(c3ccco3)n3ncnc3N2)cc1` (centres undefined), the Potency was inconclusive: 15.8 µM [activator, partial curve, poor fit].
In the case of `CN(C)S(=O)(=O)c1cc(NC(=O)COC(=O)c2nc(Cl)ccc2Cl)ccc1Cl`, the growth rescue (activation) is reported as inconclusive: 30.5% [activator].
For `Cc1[nH]c(-c2ccc(F)cc2)cc1C(=O)N1CCN(c2cccc(Cl)c2)CC1`, the Potency was inconclusive: 22.4 µM [activator, single point].
In the case of `O=C(Nc1ccccc1Cl)c1cc(C2CCCN(C(=O)OCCF)C2)on1` (centres undefined), the Potency is reported as inconclusive: 12.6 µM [activator, partial curve, poor fit].
In the case of `CCN(CC)C(=O)Oc1ccc2cc(Br)ccc2c1`, the Potency is reported as inconclusive: 17.8 µM [activator, partial curve, poor fit].
In the case of `CCCN(CCC)C(=O)Cn1c(=O)n(CCCCCC(=O)NCc2ccc3c(c2)OCO3)c(=O)c2sccc21`, the “growth rescue (activation)” value is reported as inactive: 5.63%.
With `COC(=O)c1ccccc1NC(=S)NC(=O)C1CCCCC1` the Potency was inconclusive: 14.1 µM [activator, single point].
For `Cc1ccc(-c2noc(CNC(=O)c3ccoc3C)n2)cc1`, the “growth rescue (activation)” value was inactive: -6.36%.
In the case of `O=[N+]([O-])c1ccc(O)c(/C=N/NC(=S)Nc2ccc(Cl)cc2Cl)c1`, the Potency is reported as inconclusive: 12.6 µM [activator, partial curve, poor fit].
With `S=C(Nc1ccc(Nc2ccccc2)cc1)Nc1ccccn1` the Potency was inconclusive: 7.94 µM [activator, partial curve].
With `O=C(COC(=O)c1n[nH]c2ccccc12)Nc1ccccc1F` the “growth rescue (activation)” value was inactive: 10.7%.
With `CCOC(=O)c1c(NC(C)=O)sc(/C(C)=N/Nc2ccc(C(=O)O)cc2)c1C` the “growth rescue (activation)” value was inactive: 13.5%.
With `O=[N+]([O-])c1ccccc1-c1cc(-c2ccccc2O)n[nH]1` the Potency was inconclusive: 22.4 µM [activator, single point].
With `CCc1ccc(Nc2nc3ccccc3c(=O)s2)cc1` the Potency was inconclusive: 6.31 µM [activator, partial curve, poor fit].
With `COc1cc(C(=O)NNC(=O)c2nn(C)c(=O)c3ccccc23)cc(OC)c1OC` the “growth rescue (activation)” value was inactive: 2.02%.
For `CCCc1cc(=O)[nH]c(-n2[nH]c3c(c2=O)CCCC3)n1`, the Potency was inconclusive: 15.8 µM [activator, partial curve, poor fit].
In the case of `CC(=O)c1cccc(-c2ccnc3c2CC(C(=O)Nc2ccc4c(c2)OCO4)O3)c1` (centres undefined), the Potency is reported as inconclusive: 25.1 µM [activator, partial curve, poor fit].
With `Cc1ccccc1C(=O)N(Cc1sccc1C)C1CCS(=O)(=O)C1` (centres undefined) the “growth rescue (activation)” value was inactive: 8.84%.
